Source: patent publication US20240043487A1 (Innovent, published 2024)

B1: fusion protein molecule 049 (Format 2: IL-21-004 linked to the C-terminus of the anti-PD-1 antibody heavy chain) (other)
heavy: QVQLVQSGAEVKKPGSSVKVSCKASGGTFSSYAISWVRQAPGQGLEWMGLIIPMFDTAGYAQKFQGRVAITVDESTSTAYMELSSLRSEDTAVYYCARAEHSSTGTFDYWGQGTLVTVSSASTKGPSVFPLAPSSKSTSGGTAALGCLVKDYFPEPVTVSWNSGALTSGVHTFPAVLQSSGLYSLSSVVTVPSSSLGTQTYICNVNHKPSNTKVDKKV[letters of human IgG1 Fc with changes omitted]HKSDITLQEMRQLIDIVDQLKNYVNDLVPEFLPAPEDVETNCEWSAFSCFQKAQLKSANTGNNERIINVSIKKLKRKPPSTNAGRRQKHRLTCPSCDSYEKKPPKEFLERFKSLLQKMIHQHLSSRTHGSEDS
light: DIQMTQSPSSVSASVGDRVTITCRASQGISSWLAWYQQKPGKAPKLLISAASSLQSGVPSRFSGSGSGTDFTLTISSLQPEDFATYYCQQANHLPFTFGGGTKVEIKRTVAAPSVFIFPPSDEQLKSGTASVVCLLNNFYPREAKVQWKVDNALQSGNSQESVTEQDSKDSTYSLSSTLTLSKADYEKHKVYACEVTHQGLSSPVTKSFNRGEC
B2: fusion protein molecule 053 (Format 3: IL-21-004 linked via (G4S)3 to the C-terminus of the knob heavy chain of the anti-PD-1 antibody) (other)
heavy 1: QVQLVQSGAEVKKPGSSVKVSCKASGGTFSSYAISWVRQAPGQGLEWMGLIIPMFDTAGYAQKFQGRVAITVDESTSTAYMELSSLRSEDTAVYYCARAEHSSTGTFDYWGQGTLVTVSSASTKGPSVFPLAPSSKSTSGGTAALGCLVKDYFPEPVTVSWNSGALTSGVHTFPAVLQSSGLYSLSSVVTVPSSSLGTQTYICNVNHKPSNTKVDKKV[letters of human IgG1 Fc with changes omitted]GGGGSGGGGSGGGGSHKSDITLQEMRQLIDIVDQLKNYVNDLVPEFLPAPEDVETNCEWSAFSCFQKAQLKSANTGNNERIINVSIKKLKRKPPSTNAGRRQKHRLTCPSCDSYEKKPPKEFLERFKSLLQKMIHQHLSSRTHGSEDS
heavy 2: QVQLVQSGAEVKKPGSSVKVSCKASGGTFSSYAISWVRQAPGQGLEWMGLIIPMFDTAGYAQKFQGRVAITVDESTSTAYMELSSLRSEDTAVYYCARAEHSSTGTFDYWGQGTLVTVSSASTKGPSVFPLAPSSKSTSGGTAALGCLVKDYFPEPVTVSWNSGALTSGVHTFPAVLQSSGLYSLSSVVTVPSSSLGTQTYICNVNHKPSNTKVDKKVEPKSCDKTHTCPPCPAPEAAGGPSVFLFPPKPKDTLMISRTPEVTCVVVDVSHEDPEVKFNWYVDGVEVHNAKTKPREEQYNSTYRVVSVLTVLHQDWLNGKEYKCKVSNKALPAPIEKTISKAKGQPREPQVCTLPPSRDELTKNQVSLSCAVKGFYPSDIAVEWESNGQPENNYKTTPPVLDSDGSFFLVSKLTVDKSRWQQGNVFSCSVMHEALHNHYTQKSLSLSPGK
light: B1 light
B3: fusion protein molecule 054 (Format 3: IL-21-005 linked via (G4S)3 to the C-terminus of the knob heavy chain of the anti-PD-1 antibody) (other)
heavy 1: QVQLVQSGAEVKKPGSSVKVSCKASGGTFSSYAISWVRQAPGQGLEWMGLIIPMFDTAGYAQKFQGRVAITVDESTSTAYMELSSLRSEDTAVYYCARAEHSSTGTFDYWGQGTLVTVSSASTKGPSVFPLAPSSKSTSGGTAALGCLVKDYFPEPVTVSWNSGALTSGVHTFPAVLQSSGLYSLSSVVTVPSSSLGTQTYICNVNHKPSNTKVDKKV[letters of human IgG1 Fc with changes omitted]GGGGSGGGGSGGGGSHKSDITLQEIIKTLNIVDQLKNYVNDLVPEFLPAPEDVETNCEWSAFSCFQKAQLKSANTGNNERIINVSIKKLKRKPPSTNAGRRQKHRLTCPSCDSYEKKPPKEFLERFKSLLQKMIHQHLSSRTHGSEDS
heavy 2: B2 heavy 2
light: B1 light
B4: fusion protein molecule 055 (Format 3: IL-21-006 linked via (G4S)3 to the C-terminus of the knob heavy chain of the anti-PD-1 antibody) (other)
heavy 1: QVQLVQSGAEVKKPGSSVKVSCKASGGTFSSYAISWVRQAPGQGLEWMGLIIPMFDTAGYAQKFQGRVAITVDESTSTAYMELSSLRSEDTAVYYCARAEHSSTGTFDYWGQGTLVTVSSASTKGPSVFPLAPSSKSTSGGTAALGCLVKDYFPEPVTVSWNSGALTSGVHTFPAVLQSSGLYSLSSVVTVPSSSLGTQTYICNVNHKPSNTKVDKKV[letters of human IgG1 Fc with changes omitted]GGGGSGGGGSGGGGSHKSDITLQEIIKLIDIVDQLKNYVNDLVPEFLPAPEDVETNCEWSAFSCFQKAQLKSANTGNNERIINVSIKKLKRKPPSTNAGRRQKHRLTCPSCDSYEKKPPKEFLERFKSLLQKMIHQHLSSRTHGSEDS
heavy 2: B2 heavy 2
light: B1 light
B5: fusion protein molecule 063 (Format 3: IL-21-030 linked via (G4S)3 to the C-terminus of the knob heavy chain of the anti-PD-1 antibody) (other)
heavy 1: QVQLVQSGAEVKKPGSSVKVSCKASGGTFSSYAISWVRQAPGQGLEWMGLIIPMFDTAGYAQKFQGRVAITVDESTSTAYMELSSLRSEDTAVYYCARAEHSSTGTFDYWGQGTLVTVSSASTKGPSVFPLAPSSKSTSGGTAALGCLVKDYFPEPVTVSWNSGALTSGVHTFPAVLQSSGLYSLSSVVTVPSSSLGTQTYICNVNHKPSNTKVDKKV[letters of human IgG1 Fc with changes omitted]GGGGSGGGGSGGGGSHKSDITLQEMRQLIDIVDQLKNYVNDLVPEFLPAPEDVETNCEWSAFSCFQKAQLKSANTGNNERIINVSIKKLKRKPPSTNAGRRQKHRLTCPSCDSYEKKPPKEFLERFKSLLQNMTHQHLSSRTHGSEDS
heavy 2: B2 heavy 2
light: B1 light
B6: fusion protein molecule 064 (Format 3: IL-21-031 linked via (G4S)3 to the C-terminus of the knob heavy chain of the anti-PD-1 antibody) (other)
heavy 1: QVQLVQSGAEVKKPGSSVKVSCKASGGTFSSYAISWVRQAPGQGLEWMGLIIPMFDTAGYAQKFQGRVAITVDESTSTAYMELSSLRSEDTAVYYCARAEHSSTGTFDYWGQGTLVTVSSASTKGPSVFPLAPSSKSTSGGTAALGCLVKDYFPEPVTVSWNSGALTSGVHTFPAVLQSSGLYSLSSVVTVPSSSLGTQTYICNVNHKPSNTKVDKKV[letters of human IgG1 Fc with changes omitted]GGGGSGGGGSGGGGSHKSDITLQEMRQLIDIVDQLKNYVNDLVPEFLPAPENVTTNCEWSAFSCFQKAQLKSANTGNNERIINVSIKKLKRKPPSTNAGRRQKHRLTCPSCDSYEKKPPKEFLERFKSLLQKMIHQHLSSRTHGSEDS
heavy 2: B2 heavy 2
light: B1 light
B7: fusion protein molecule 059 (Format 3: IL-21-027 linked via (G4S)3 to the C-terminus of the knob heavy chain of the anti-PD-1 antibody) (other)
heavy 1: QVQLVQSGAEVKKPGSSVKVSCKASGGTFSSYAISWVRQAPGQGLEWMGLIIPMFDTAGYAQKFQGRVAITVDESTSTAYMELSSLRSEDTAVYYCARAEHSSTGTFDYWGQGTLVTVSSASTKGPSVFPLAPSSKSTSGGTAALGCLVKDYFPEPVTVSWNSGALTSGVHTFPAVLQSSGLYSLSSVVTVPSSSLGTQTYICNVNHKPSNTKVDKKV[letters of human IgG1 Fc with changes omitted][letters of about 150 residues omitted]
heavy 2: B2 heavy 2
light: B1 light
B8: fusion protein molecule 061 (Format 3: IL-21-028 linked via (G4S)3 to the C-terminus of the knob heavy chain of the anti-PD-1 antibody) (other)
heavy 1: QVQLVQSGAEVKKPGSSVKVSCKASGGTFSSYAISWVRQAPGQGLEWMGLIIPMFDTAGYAQKFQGRVAITVDESTSTAYMELSSLRSEDTAVYYCARAEHSSTGTFDYWGQGTLVTVSSASTKGPSVFPLAPSSKSTSGGTAALGCLVKDYFPEPVTVSWNSGALTSGVHTFPAVLQSSGLYSLSSVVTVPSSSLGTQTYICNVNHKPSNTKVDKKV[letters of human IgG1 Fc with changes omitted]GGGGSGGGGSGGGGSQGQDRHMIRMRQLIDIVDNLTNYVNDLVPEFLPAPEDVETNAEWSAFSCFQKAQLKSANTGNNERIINVSIKKLKRKPPSTNATTPSCDSYEKKPPKEFLERFKSLLQKMIHQHLSSRTHGSEDS
heavy 2: B2 heavy 2
light: B1 light

Molecular target: IL-21 receptor on the surface of T cells (HuT78 and HuT78-GFP-PD1 cells) (UniProt Q9HBE5 20-538; P31785 23-369)
Experiment: cell-based or functional assay

Sequence of UniProt Q9HBE5 (Q9HBE5 20-538, chain 1 of 2): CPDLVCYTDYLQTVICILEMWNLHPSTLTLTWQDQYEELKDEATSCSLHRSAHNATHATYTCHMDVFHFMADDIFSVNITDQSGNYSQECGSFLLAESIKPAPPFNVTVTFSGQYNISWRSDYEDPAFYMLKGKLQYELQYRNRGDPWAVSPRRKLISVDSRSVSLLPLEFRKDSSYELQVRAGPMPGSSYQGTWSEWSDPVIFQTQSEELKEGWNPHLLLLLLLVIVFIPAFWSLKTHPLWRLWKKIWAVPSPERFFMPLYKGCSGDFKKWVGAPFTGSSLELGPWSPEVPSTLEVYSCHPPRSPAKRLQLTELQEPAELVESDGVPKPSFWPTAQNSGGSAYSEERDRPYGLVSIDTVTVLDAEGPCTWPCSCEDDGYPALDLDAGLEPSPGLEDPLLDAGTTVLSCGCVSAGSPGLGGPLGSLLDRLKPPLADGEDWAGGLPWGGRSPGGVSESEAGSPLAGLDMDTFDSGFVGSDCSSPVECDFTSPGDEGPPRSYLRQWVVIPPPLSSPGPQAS
Sequence of UniProt Q9HBE5 (P31785 23-369, chain 2 of 2, further chain): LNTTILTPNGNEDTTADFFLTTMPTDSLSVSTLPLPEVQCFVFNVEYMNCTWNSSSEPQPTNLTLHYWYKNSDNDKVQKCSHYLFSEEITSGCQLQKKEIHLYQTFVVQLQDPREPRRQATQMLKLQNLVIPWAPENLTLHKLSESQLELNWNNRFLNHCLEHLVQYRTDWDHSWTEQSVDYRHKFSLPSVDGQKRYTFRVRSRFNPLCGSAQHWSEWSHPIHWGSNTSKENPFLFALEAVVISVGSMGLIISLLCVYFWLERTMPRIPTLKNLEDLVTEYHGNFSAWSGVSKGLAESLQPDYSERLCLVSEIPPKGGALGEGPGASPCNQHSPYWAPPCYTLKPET

Row | Binder | EC50 (nM) of STAT3 phosphorylation, PD1-Positive HuT78-GFP-PD1 cells | EC50 (nM) of STAT3 phosphorylation, PD1-negative HuT78 cells
1 | B1 | 1.53 nM | ~4380 nM
2 | B2 | 0.0339 nM | –
3 | B3 | 0.0431 nM | –
4 | B4 | 0.0921 nM | –
5 | B5 | 0.822 nM | –
6 | B6 | 3.04 nM | –
7 | B7 | 5.33 nM | –
8 | B8 | 0.831 nM | –
